Test results taken from the supplement of paper PMC10126150.
Values marked as one replicate rest on one cluster of the flow cell; about a third of the high ones do not repeat.

Test system: ATP
Assay: switch fluorescence ratio, 500 uM ATP over buffer (Cy3 cluster intensity, sum of 5 cycles each) (fold (ratio)); higher = stronger signal-on switching upon ATP binding; sequences stand for … in TCGTCGGCAGCGTCAGATGTGTATAAGAGACAGTTTTTTTTTTTTTTTTTTTTTTTTT…TC
Conditions: aptamer strand: ATP DNA aptamer (quencher-CACCTGGGGGAGTATTGCGGAGGAAGG + anchor), 100 nM annealed; ATP concentration: 500 uM; one replicate
Summary of the method: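 The quencher-labelled ATP aptamer, at 100 nM, was annealed to Cy3-labelled switching-strand clusters on a modified Illumina MiSeq flow-cell. The clusters were imaged in selection buffer, then after 15 min with 500 uM ATP at 22 °C, and this buffer/ATP cycle ran five times with NaOH stripping and re-annealing between runs. Per-cluster fluorescence ratios, summed target-cycle over summed buffer-cycle Cy3 intensity, were averaged per switch-domain sequence. Clusters outside 100-1000 RFU were excluded.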
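Also: ATP exposure 15 min at 22 °C before imaging.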

Sequence | switch fluorescence ratio
TTATAAGCC | 1
TTATAATCTT | 0.995
TTATACGGGA | 0.993
TTATAGCGAG | 1.04
TTATAGCGGT | 1
TTATAGGAT | 0.994
TTATAGTGG | 1.03
TTATATCCA | 1.03
TTATATGAAG | 1.03
TTATATTGC | 0.962
TTATATTGG | 0.976
TTATCACTG | 1.04
TTATCATGTA | 1
TTATCCATCC | 1.11
TTATCCGCGC | 2.84
TTATCGGACA | 1.01
TTATCTAGG | 0.995
TTATGCCAAT | 0.959
TTATGCCAGC | 1
TTATGCTCGG | 1.01
TTATGGAGGA | 0.941
TTATGGCACT | 1.03
TTATGGCTAC | 1
TTATGGCTGC | 1.04
TTATGGGGCT | 1.05
TTATGTTTGA | 0.96

Sequence | switch fluorescence ratio
TTATTCGAAA | 1
TTATTCTTGA | 1.02
TTATTGCACC | 1.04
TTATTGCGTG | 1.04
TTATTGGAAG | 1
TTATTTAGA | 0.998
TTATTTCTCT | 0.977
TTATTTGCAA | 1.11
TTATTTTACC | 1.06
TTATTTTAGA | 0.968
TTCAAAGCGG | 1.04
TTCAACAGGG | 1.15
TTCAACCTAG | 1.06
TTCAACTCCG | 1.17
TTCAAGCAGT | 1.62
TTCAAGCGGA | 1.02
TTCAAGGC | 1.07
TTCAATAGGT | 0.991
TTCAATATTC | 1.05
TTCACAGTTC | 1.06
TTCACGCCAG | 1.03
TTCACTCGCG | 1.03
TTCAGAACGT | 1.01
TTCAGAATG | 1.04
TTCAGAGAGA | 1.02
TTCAGAGATC | 0.939

Sequence | switch fluorescence ratio
TTCAGAGCCC | 1.04
TTCAGATTCA | 0.949
TTCAGGAACT | 0.977
TTCAGGAGTA | 1.04
TTCAGGATTC | 0.964
TTCAGTAGTC | 0.997
TTCATAATTT | 1.02
TTCATAGCAG | 0.999
TTCATAGGGC | 0.966
TTCATATTTC | 1.14
TTCATCCATT | 1.05
TTCATGACCA | 1.07
TTCATGGGCA | 0.97
TTCATGTGGT | 0.993
TTCATGTTAG | 1.02
TTCATTAGG | 0.985
TTCCAAAACA | 0.983
TTCCAACACC | 1.07
TTCCAACACT | 1.69
TTCCAAGAG | 1.05
TTCCAATAAA | 1.07
TTCCAATTAA | 1.02
TTCCAGATA | 1.09
TTCCAGTGCA | 1.05
TTCCATACCT | 1.32
TTCCATCTG | 1.16

Sequence | switch fluorescence ratio
TTCCATCTGT | 1.01
TTCCATTAAG | 0.985
TTCCCATTAC | 3.96
TTCCCCAGCG | 3.72
TTCCCCGTGT | 1.14
TTCCCCTGTA | 1.28
TTCCCCTTCA | 1.78
TTCCGAAGA | 1.3
TTCCGCGTAT | 2.42
TTCCGGCAAC | 1.14
TTCCGGCG | 1.02
TTCCGGCGAT | 1.04
TTCCGGTGGC | 1.09
TTCCGTGTCC | 1.08
TTCCGTTAGC | 1.56
TTCCTAACTG | 0.932
TTCCTCATCA | 1.03
TTCCTCATGT | 1.23
TTCCTCCTAT | 1.18
TTCCTGAGCA | 1.81
TTCCTGAGCG | 0.966
TTCCTGCATA | 1.23
TTCCTGGATT | 1.02
TTCCTGGTCG | 1.03
TTCCTGGTGT | 1.66
TTCCTTTAAT | 0.983

Sequence | switch fluorescence ratio
TTCGAACT | 0.928
TTCGAATAGC | 1
TTCGAGCTAC | 3.25
TTCGAGGGG | 0.988
TTCGAGGGTT | 0.983
TTCGATAAGC | 1.01
TTCGCACTTC | 3.41
TTCGCATCCT | 1.08
TTCGCCTCTA | 0.983
TTCGCGAACA | 1.04
TTCGCGGGCC | 1.04
TTCGCTATTT | 1.04
TTCGCTCGGA | 1.02
TTCGCTGTG | 1.05
TTCGGACGGA | 1.02
TTCGGAGACA | 0.984
TTCGGAGTAG | 0.949
TTCGGAGTAT | 1.01
TTCGGATCGC | 1.04
TTCGGATTGA | 1
TTCGGCAAGC | 1.3
TTCGGGAT | 1.87
TTCGGGCTAT | 1.06
TTCGGGGAGA | 0.998
TTCGGGGTA | 1.02
TTCGGGTGGG | 1.01

Sequence | switch fluorescence ratio
TTCGGGTTAG | 0.995
TTCGGTACTA | 1.02
TTCGGTCGTT | 0.983
TTCGGTCTAG | 0.976
TTCGTAAAAT | 0.993
TTCGTAATTA | 1.04
TTCGTATTCT | 1.02
TTCGTGCAGC | 1.05
TTCGTGGCAT | 1.01
TTCGTGTTAA | 0.988
TTCGTTAAAT | 0.996
TTCGTTACCC | 1.06
TTCGTTAGTA | 1.03
TTCGTTGAGA | 1.01
TTCGTTGGA | 0.931
TTCTAAT | 0.979
TTCTACTAGG | 1.02
TTCTAGAAA | 0.96
TTCTAGCTAG | 0.981
TTCTAGCTGA | 0.957
TTCTATGTTG | 1.02
TTCTCAAGT | 1.01
TTCTCAGGCG | 1.02
TTCTCCATCA | 1.01
TTCTCCC | 1.42
TTCTCCCGTT | 1.12

Sequence | switch fluorescence ratio
TTCTCCGGGG | 0.991
TTCTCGAAGG | 0.959
TTCTCGTAAT | 1.33
TTCTCGTTTA | 1.02
TTCTGAAGAT | 2.17
TTCTGCAGAC | 1.83
TTCTGGCGAA | 1.33
TTCTGGCTGA | 0.956
TTCTGGGGAA | 1.11
TTCTGTTTG | 0.996
TTCTTAACCG | 1.01
TTCTTAATTC | 1.15
TTCTTAGTAC | 1
TTCTTATCTA | 0.97
TTCTTCCGAC | 4.39
TTCTTCCTGT | 0.975
TTCTTGAGAC | 1.04
TTCTTGTATC | 0.964
TTCTTGTTAG | 0.985
TTCTTTCACC | 0.986
TTCTTTTGCG | 0.981
TTCTTTTTGT | 1.06
TTCTTTTTTC | 0.976
TTGAAACACG | 2.66
TTGAACCGGA | 1.45
TTGAACGATC | 0.989

Sequence | switch fluorescence ratio
TTGAAGAATC | 1.04
TTGAAGTGTT | 0.98
TTGAATAGGG | 0.996
TTGAATTTAC | 1.04
TTGACAACA | 1.05
TTGACATCGC | 1.04
TTGACCAAAG | 1.01
TTGACCGTA | 0.984
TTGACGATTG | 0.988
TTGACGGGCG | 1.1
TTGACGTAGT | 1.01
TTGACGTCCC | 1.21
TTGACGTCTT | 0.952
TTGACGTTAG | 0.971
TTGACTACTA | 1.11
TTGACTATCT | 0.98
TTGACTCCAT | 1.01
TTGAGACGCC | 1.08
TTGAGCCTGA | 1.02
